In the supplement of paper PMC11417369:
± gives the standard deviation of the averaged measurements. Some of the results follow.

Test system: PfAP2-G AP2 domain (GST-tagged)
Test: gcPBM binding intensity (ln(normalized median fluorescence intensity)); higher = stronger DNA binding
How it was run: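 Probes on an Agilent 4 × 180k array were primer-extended, double-stranded and 36 bp long, taken from intergenic genomic regions, with negative controls added. GST-tagged P. falciparum DNA-binding domains from E. coli, about 25 μg on average, were applied to the array for 1 h in 1× PBS containing 1% milk, 0.2 mg/ml BSA, 0.5% salmon testes DNA and 0.03% Triton X-100. Binding intensity, obtained after Alexa488 anti-GST antibody detection and a 488 nm scan, is the highest Masliner-normalised natural-log median intensity across replicate spots of either probe orientation.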

Point of comparison: “TTCGTATGCATGAAATGTACATGATATTATTATAAA [XGTACX_site4542]”, “gcPBM binding intensity (ln)” value 10.9 ± 0.57. Against it:
- TTATATGCATATTTTTGTACACAACATTGTTGTATA [XGTACX_site8707] — within error, 11.2 ± 0.64
- AAATATTTCTGCAAGGTGCACTTTATAAATCTTTGA — within error, 10.5 ± 0.74
- AAGAAATTTATTTATTGTACAATATATAATTTGTTT [XGTACX_site2478] — the same, 10.9 ± 0.54
- AATATGGGCATACATGTGCACTTTTTCCCGTGGTTT — within error, 10.4 ± 0.13
- TTAATTAAATATAGGGGTACATATTATATATGTTTT [XGTACX_site3677] — within error, 11.5 ± 0.88
- ACGAAAAGATATATATGTACATATATTAAAAAAAAA [XGTACX_site1517] — within error, 11.1 ± 0.61
- TTATTTTTTTTTAGAGCACACATTTTTAATAAGGTA [CACACA_site2133] — within error, 10.3 ± 0.4
- ATGTATATTTTTATGTGTACGTAATAAAACATAATA [XGTACX_site7777] — within error, 11.6 ± 0.86
- TGAAGCAAAAACAAAACACACATATAAATAAATAAA [CACACA_site3925] — lower, 9.875 ± 0.007
- TTATTTTTTATAAAATGTACATATATTTTAAATATA [XGTACX_site4026] — within error, 11.2 ± 0.75
- ACCAATCCAAAAGAATGTACCCATGTTTTAAAATAT [XGTACX_site2907] — within error, 11.2 ± 0.92
- TATAAATTTGTTCAATGTACATGTAAAGATATAATC [XGTACX_site371] — within error, 11.1 ± 0.67
- TTTTGTTAACATATAGAAAAGAACAAAGTTAAAAAG [XGTACX_negctrl_site462] — lower, 10.13 ± 0.035
- AGTATGTAAATGTGCCATATATATATTAAATACATA [CACACA_negctrl_site14] — lower, 10.1 ± 0.23
- GTTGGTAGGCGGTACGGTACACGTAGTATTTTTCTT [XGTACX_site4213] — within error, 11.1 ± 0.67
- ATATTATTTATTTTTAAATTATATTGATTATTTTTT [CACACA_negctrl_site451] — lower, 9.45 ± 0.028
- TATTTATAAATATACGCACACATTAATATATATATA [CACACA_site3969] — within error, 10.4 ± 0.38
- TAATGTTCCTATATAGTGCAATTATGTTTTATTTCT — lower, 10.06 ± 0.035
- TTTTAATTTTTAAGACGTACTATCATTTGATAATAA [XGTACX_site3942] — within error, 11.1 ± 0.8
- TACGATGTTTTAAAATGTACATAAAAGTCACATAAG [XGTACX_site3297] — within error, 11.1 ± 0.69
- TCTTTTTTTTTTACTAGTACTTAAAAAAAAAATATG [XGTACX_site4395] — within error, 11.2 ± 0.79
- ATTATGTGCCAATACACACACACATCTATATTTATA [CACACA_site6359] — within error, 10.2 ± 0.16
- TTGAAGTGTACTATTTTATATATATATATACATTTT [CACACA_negctrl_site224] — within error, 11.6 ± 0.92
- TAGAAATATATTTATTGTACATTGTATATATTATAT [XGTACX_site7584] — within error, 10.6 ± 0.2
- CATAAATACAAATATACACACATATATATATATATA [CACACA_site2633] — within error, 10.2 ± 0.55
- AATATGTTTTTTAGATGTACAGATTAAATATTAAAA [XGTACX_site7308] — within error, 11.2 ± 0.88
- AAATCACAAAAAAAAAAAAAAATATATATATATATA [CACACA_negctrl_site10] — lower, 9.69 ± 0.33
- TTATTATATAAATAAAAAAAAAAAAAAAAAAAAAAA [CACACA_negctrl_site1455] — lower, 9.51 ± 0.35
- TATATACGCATGCGCACACACAAGTGGGAAATTTGG [CACACA_site1785] — within error, 10.5 ± 0.19
- ATATTTATATGAATCACACACAAAAAATATAGAGAT [CACACA_site7775] — lower, 10.1 ± 0.14
- ACTGTGGGAATAACCACACACACACCCACATATATA [CACACA_site3542] — within error, 10.3 ± 0.23
- TTAATTATATGGTAAACAAATAAATGTGAAAGGAAA [XGTACX_negctrl_site389] — lower, 10.02 ± 0.028
- CGTGGGAGCAGACACACACACACACCCATATATATA [CACACA_site334] — lower, 10.24 ± 0.078
- TTTTTTTCATATATATGTACATAATTATATATGCAT [XGTACX_site3257] — within error, 11.2 ± 0.75
- AAATAGTAAGAGATGGTGCGTTTCCTTTTTTTTTTT [GTGCAC_site9663] — lower, 9.83 ± 0.21
- TTTAAAAATATTTCACGTACGCATTTTAAAAAGTAT [XGTACX_site8026] — within error, 11.6 ± 1
- TACAAGAACAAAAAATGTACGAAATAATTACAAATA [XGTACX_site5824] — within error, 10.7 ± 0.34
- AATCTTTTTAAATCTTGATTAATTTCGGGTATATAT [TGCATGCA_negctrl_site107] — lower, 9.99 ± 0.29
- ATACAATAATATAAATGTACAAATTATATCTTCATT [XGTACX_site8994] — within error, 10.7 ± 0.28
- AAATTAAATATTATATTAATTCTTAAATTTTTTTTT [CACACA_negctrl_site439] — lower, 9.29 ± 0.19
- AAACATATGGTATTTAAACACACAAAAAAGAAAGAA [CACACA_site8239] — lower, 10.1 ± 0.21
- ATGTTGTGGATATATACACACATACATATTTATATA [CACACA_site6857] — within error, 10.2 ± 0.18
- TATATTATATATATATGTACATATTATTATATCTAA [XGTACX_site3835] — within error, 11.2 ± 0.78
- TTTTGTATTTTTCACACACACATAAGTAAACAATAA [CACACA_site1899] — within error, 10.4 ± 0.35
- TAAATGAAAATATGTACACACTTGAAAATTTTTATG [CACACA_site5599] — within error, 11.5 ± 0.82
- AAAAAAAAAAAAAAAACACACAAACATCAAATTACT [CACACA_site6950] — within error, 10.4 ± 0.18
- AAATTTAAAAATAAAGAACACACATATGTAAAATAT [CACACA_site9252] — lower, 10.19 ± 0.028
- AATTTCAATTTCTGTTGTACACTTTTTAATAGTAAA [XGTACX_site4085] — within error, 11.4 ± 0.88
- AAGTGTTCTTGTTATACACACACATATATATATATA [CACACA_site8251] — within error, 10.4 ± 0.47
- TATGATAAATATGGAGCACACACACCGAAACATACA [CACACA_site8031] — within error, 10.5 ± 0.3
- AAAAAGATAAAATATACATGCATATATAATATACAT [TGCATGCA_site488] — lower, 9.55 ± 0.3
- TGCTTATATATAAATTGTACTGAAAGAATAAAATAA [XGTACX_site4025] — the same, 10.9 ± 0.67
- TATTATAATATATTTGTGCACATAATATCTCCGCTA [GTGCAC_site9799] — within error, 10.5 ± 0.35
- AGTAGTCTGGAGAAAAGTACATAGTATCTGATAACC [XGTACX_site2028] — within error, 11.3 ± 0.94
- AAAAAAGGTAAAAAAAGTACAAAAAAAAAATTAAAA [XGTACX_site6993] — within error, 11.3 ± 0.88
- AAAAAAAAAAAATACACACACATATTTATTTATATA [CACACA_site7114] — lower, 9.74 ± 0.099
